# The campaign covered roughly 52,000 compounds. About 1,700 (3.3%) were called active. No stated cut-off is given here; in the data, active means survival mostly below about 52% (no sharp cut-off); inactive means mostly above about 56%. This is one part of the list.
# System: Wild type
# Assay: growth inhibition of S. aureus wild type versus tarO mutant, primary screen, teichoic acid synthesis inhibitors, RN4220, OD600 (AID 463173)
# Settings: S. aureus RN4220 wild type/DeltatarO growth, OD600, 18 h, stronger effect = lower value, screened at 18.75 µg/mL (by protocol)
row,Compound,survival
1,O=C(Nc1ccccc1C(=O)OCc1cc(=O)n2c3c(sc2n1)CCCC3)c1cccc(Cl)c1,inactive: 73%
2,COC(=O)c1c(-c2ccc(Cl)cc2)noc1N1CCN(c2cccc(C(F)(F)F)c2)CC1,inactive: 70%
3,CCc1ccccc1NC(=O)NCc1ccc2c(c1)CCN2C(=O)c1ccccc1,inactive: 140%
4,NNC(=O)CSc1c(-c2cccs2)[nH]c2ccccc12,inactive: 105%
5,Cc1cc2c(c(=O)o1)C(C(C)C)C(C#N)=C(N)O2 (stereo not given),inactive: 100%
6,CCCn1ccc2c(OCC(=O)NCc3ccccc3Cl)cccc2c1=O,inactive: 130%
7,O=C(CSc1nccn1Cc1ccccc1)NCc1ccccc1Cl,inactive: 83%
8,CCOC(=O)CC(NC(=O)N1CCC(CN2CCC(C)CC2)CC1)c1ccccc1 (stereo not given),inactive: 75%
9,CC(=O)NC1CCN(C(=O)Nc2ccccc2)CC1,inactive: 105%
10,Cc1cc(C)nc(NS(=O)(=O)c2ccc(NC(=O)COc3ccc(C(C)(C)C)cc3)cc2)n1,inactive: 62%
11,CN(C)c1ccc(/C=C2/SC(=Nc3ccccc3)NC2=O)cc1,inactive: 116%
12,COC(=O)c1nc(C(=O)OC)c(C(=O)OC)nc1C(=O)OC,inactive: 105%
13,Cc1cccc(C)c1Nc1c(-c2ccsc2)nc2ccc(Cl)cn12,inactive: 84%
14,CC(C)Cn1cc(NC(=O)N2CCN(c3ccccc3F)CC2)c2ccccc2c1=O,inactive: 75%
15,O=S(=O)(c1ccccc1)N1CCN(Cc2ccccc2)CC1,inactive: 100%
16,COc1ccc(-c2cn3nc(N4CCCC(C(=O)NCc5ccccc5Cl)C4)sc3n2)cc1 (stereo not given),inactive: 75%
17,Cc1cccc(CNC(=O)CCn2ccc3cc(S(=O)(=O)N4CCCC4)ccc32)c1,inactive: 76%
18,COc1ccc(OC)c(CCNC(=O)c2cnn(-c3ccccc3)c2C2CCN(C(=O)OC(C)(C)C)CC2)c1,inactive: 102%
19,COC(=O)c1cc2oc3ccccc3c2n1Cc1cc(C)ccc1C,inactive: 137%
20,O=c1c(N2CCN(c3cccc(C(F)(F)F)c3)CC2)csc2ccc(Cl)cc12,inactive: 74%
21,Cc1ccccc1CSc1nc2c(sc3ccccc32)c(=O)n1CCCOC(C)C,inactive: 134%
22,COc1cc(OC)cc(N2CCN(S(=O)(=O)c3ccc(-n4cnnn4)cc3)CC2)c1,inactive: 93%
23,O=C1CC(c2ccccc2)Cc2[nH]c(=O)c(-c3nc(-c4ccc(Cl)cc4)cs3)cc21 (stereo not given),inactive: 61%
24,CCN1CCN(C(c2cccc(F)c2)c2c(O)cc(C)n(Cc3ccco3)c2=O)CC1 (stereo not given),inactive: 71%
25,Cc1nn(C)c2c1c(-c1ccccc1)cc(=O)n2C(C)C(=O)NCc1ccc(F)cc1 (stereo not given),inactive: 71%
